# Measured values published in PubChem BioAssay (NCATS).
# Where “and” joins values, the source holds several entries; their conditions need not be identical. Identical values can stand only once. Inconclusive results, whose numbers are uncertain, are shown with a selection of clear calls. For some assays here: Where the call is inconclusive, the potency comes from a doubtful curve fit. Some compounds were tested as several samples or in several runs, with calls that do not always agree. Calls of active or inactive are those of the source. Unless noted, calls come from the whole dose curve; as a rule, active = well fitted curve in the direction sought with a large enough effect; inconclusive = small, poorly fitted or top-dose-only effect, or another doubt; inactive = no such curve, though single readings can be large; an effect the other way counts as inactive or inconclusive.
# Assays:
# [1] = Primary qHTS for small molecule stabilizers of the endoplasmic reticulum resident proteome: Secreted ER Calcium Modulated Protein (SERCaMP) assay (AID 1508630); conditions: SH-SY5Y GLuc-SERCaMP (Gaussia luciferase released on ER calcium loss) secretion, thapsigargin, luminescence; activity change, negative = inhibition: at 38.4 µM (top of the series) unless noted; note: potency is the fitted concentration of half-maximal effect
# Summary of the method: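 GLuc-SERCaMP-expressing SH-SY5Y cells, pretreated 16 h with compound, are challenged with thapsigargin to empty ER calcium stores; after 4 h, coelenterazine is added directly to the medium and luminescence is imaged.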
# [2] = target: N-terminal Xaa-Pro-Lys N-methyltransferase 1 (Homo sapiens) (UniProt Q9BV86); assay: Confirmatory qHTS for Inhibitors of N-terminal methyltransferase 1 (NTMT1): MTaseGlo Assay (AID 1645874);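 note: luminescence from SAH made as NTMT1 methylates SPKRIA peptide using SAM; 0% = DMSO control and -100% = no-enzyme control; nearly all actives have a fitted effect of over 65% in size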
# Sequence of UniProt Q9BV86 (Q9BV86 whole entry, looked up): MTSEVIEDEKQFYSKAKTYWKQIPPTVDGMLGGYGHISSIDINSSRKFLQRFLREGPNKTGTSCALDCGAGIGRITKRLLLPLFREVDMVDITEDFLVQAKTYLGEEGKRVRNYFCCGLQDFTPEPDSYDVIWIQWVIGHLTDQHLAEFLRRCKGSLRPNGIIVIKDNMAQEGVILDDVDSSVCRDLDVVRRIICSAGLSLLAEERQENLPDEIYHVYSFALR
# Summary of the method: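 Preincubation of NTMT1 (125 nM) plus SAM (100 uM) with test compounds lasted 15 min; methylation of 1 uM SPKRIA then proceeded 30 min in the dark at room temperature. Luciferase signal reported SAH produced.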
# [3] = target: Rap guanine nucleotide exchange factor 4 (Homo sapiens) (UniProt Q8WZA2); assay: Confirmatory qHTS for antagonist of cAMP-regulated guanine nucleotide exchange factor 4 (EPAC2) (AID 1645885); conditions: activity change, negative = inhibition: at 12.7 µM (top of the series) unless noted; note: nearly all actives have a fitted effect of over 25% in size; note: potency is the fitted concentration of half-maximal effect
# Sequence of UniProt Q8WZA2 (Q8WZA2 whole entry, looked up): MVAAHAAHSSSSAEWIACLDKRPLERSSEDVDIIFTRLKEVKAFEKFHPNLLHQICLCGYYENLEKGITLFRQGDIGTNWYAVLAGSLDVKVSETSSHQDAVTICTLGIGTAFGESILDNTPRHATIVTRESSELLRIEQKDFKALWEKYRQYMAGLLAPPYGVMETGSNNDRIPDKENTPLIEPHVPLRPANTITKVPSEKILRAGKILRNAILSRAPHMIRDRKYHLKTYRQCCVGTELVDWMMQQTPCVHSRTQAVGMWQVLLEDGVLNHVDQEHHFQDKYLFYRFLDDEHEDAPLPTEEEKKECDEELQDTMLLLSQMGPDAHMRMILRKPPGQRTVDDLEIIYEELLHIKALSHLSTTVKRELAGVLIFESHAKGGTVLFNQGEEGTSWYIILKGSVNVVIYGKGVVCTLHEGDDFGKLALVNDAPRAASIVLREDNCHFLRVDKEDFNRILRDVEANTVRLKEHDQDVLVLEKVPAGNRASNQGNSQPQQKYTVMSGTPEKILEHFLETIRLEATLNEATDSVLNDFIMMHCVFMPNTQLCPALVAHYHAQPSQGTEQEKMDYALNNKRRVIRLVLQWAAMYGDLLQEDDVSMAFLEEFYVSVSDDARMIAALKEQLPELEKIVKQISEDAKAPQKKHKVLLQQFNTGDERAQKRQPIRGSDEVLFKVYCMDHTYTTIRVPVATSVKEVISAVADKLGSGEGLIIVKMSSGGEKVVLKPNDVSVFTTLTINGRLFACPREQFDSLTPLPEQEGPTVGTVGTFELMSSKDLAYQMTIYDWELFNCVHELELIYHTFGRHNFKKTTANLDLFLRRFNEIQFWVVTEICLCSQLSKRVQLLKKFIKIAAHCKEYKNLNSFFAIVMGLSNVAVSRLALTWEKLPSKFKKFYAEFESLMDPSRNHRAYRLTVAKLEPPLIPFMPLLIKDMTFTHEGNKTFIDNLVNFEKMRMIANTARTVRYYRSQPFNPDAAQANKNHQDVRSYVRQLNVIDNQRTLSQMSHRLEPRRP
# [4] = target: Rap guanine nucleotide exchange factor 3 (Homo sapiens) (UniProt O95398); assay: Confirmatory qHTS for antagonist of cAMP-regulated guanine nucleotide exchange factor 3 (EPAC1) (AID 1645880); conditions: EPAC1 Rap1B-BODIPY-GDP exchange, fluorescence; activity, negative = inhibition: at 115 µM (top of the series); note: nearly all actives have a fitted effect of over 55% in size; note: potency is the fitted concentration of half-maximal effect;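 for activity, negative = inhibition: plate controls were DMSO only for no effect and full effect of the ATA control for full effect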
# Sequence of UniProt O95398 (O95398 whole entry, looked up): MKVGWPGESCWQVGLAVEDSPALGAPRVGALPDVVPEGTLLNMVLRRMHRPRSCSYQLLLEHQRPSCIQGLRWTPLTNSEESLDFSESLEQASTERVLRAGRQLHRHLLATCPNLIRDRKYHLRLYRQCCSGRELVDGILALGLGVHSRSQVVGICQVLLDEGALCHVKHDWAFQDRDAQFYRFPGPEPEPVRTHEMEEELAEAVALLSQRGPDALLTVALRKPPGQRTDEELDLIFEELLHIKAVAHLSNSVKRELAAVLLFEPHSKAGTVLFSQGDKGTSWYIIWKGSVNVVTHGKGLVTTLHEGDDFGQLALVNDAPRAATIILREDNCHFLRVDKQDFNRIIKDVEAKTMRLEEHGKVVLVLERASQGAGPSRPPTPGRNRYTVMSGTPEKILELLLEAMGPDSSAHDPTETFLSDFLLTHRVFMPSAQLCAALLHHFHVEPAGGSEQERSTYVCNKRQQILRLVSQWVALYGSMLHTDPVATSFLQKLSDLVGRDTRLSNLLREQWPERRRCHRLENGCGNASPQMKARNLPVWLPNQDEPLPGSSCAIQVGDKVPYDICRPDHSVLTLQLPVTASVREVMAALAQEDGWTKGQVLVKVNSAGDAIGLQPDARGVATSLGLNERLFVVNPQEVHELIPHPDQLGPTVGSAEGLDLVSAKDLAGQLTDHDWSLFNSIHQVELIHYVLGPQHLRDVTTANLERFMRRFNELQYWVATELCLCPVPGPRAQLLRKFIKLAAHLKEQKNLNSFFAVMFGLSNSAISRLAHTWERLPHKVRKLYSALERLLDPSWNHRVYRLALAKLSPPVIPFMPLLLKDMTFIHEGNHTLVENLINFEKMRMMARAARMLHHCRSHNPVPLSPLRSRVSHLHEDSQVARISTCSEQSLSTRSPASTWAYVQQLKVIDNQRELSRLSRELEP
# Summary of the method: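 Nucleotide exchange uses 100 nM EPAC1, 250 nM RAP1B-BODIPY-GDP and 50 uM GDP, with compounds in a concentration-titration series. After 5 min at room temperature, fluorescence (480 nm ex/540 nm em) is read every 5 min for 30 min. Data are normalized to control ATA and DMSO.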
# [5] = target: 3',5'-cyclic-AMP phosphodiesterase 4B (Homo sapiens) (UniProt Q07343); assay: qHTS Assay for Inhibitors of PDE-IV (AID 607; active = well fitted activation curve with a large enough effect in the main read-out, with a control signal flat, not every such curve was filed as active; inconclusive = small, poorly fitted or top-dose-only effect, or effect the other way, or a change in a side signal; note: potency is the fitted concentration of half-maximal effect; for activation (PDE inhibition): % of control where 0% means no effect); conditions: HEK293 ACTOne CNG channel cells, membrane potential fluorescence; activation (PDE inhibition): at 22.9 µM (top of the series)
# Sequence of UniProt Q07343 (Q07343 whole entry, looked up): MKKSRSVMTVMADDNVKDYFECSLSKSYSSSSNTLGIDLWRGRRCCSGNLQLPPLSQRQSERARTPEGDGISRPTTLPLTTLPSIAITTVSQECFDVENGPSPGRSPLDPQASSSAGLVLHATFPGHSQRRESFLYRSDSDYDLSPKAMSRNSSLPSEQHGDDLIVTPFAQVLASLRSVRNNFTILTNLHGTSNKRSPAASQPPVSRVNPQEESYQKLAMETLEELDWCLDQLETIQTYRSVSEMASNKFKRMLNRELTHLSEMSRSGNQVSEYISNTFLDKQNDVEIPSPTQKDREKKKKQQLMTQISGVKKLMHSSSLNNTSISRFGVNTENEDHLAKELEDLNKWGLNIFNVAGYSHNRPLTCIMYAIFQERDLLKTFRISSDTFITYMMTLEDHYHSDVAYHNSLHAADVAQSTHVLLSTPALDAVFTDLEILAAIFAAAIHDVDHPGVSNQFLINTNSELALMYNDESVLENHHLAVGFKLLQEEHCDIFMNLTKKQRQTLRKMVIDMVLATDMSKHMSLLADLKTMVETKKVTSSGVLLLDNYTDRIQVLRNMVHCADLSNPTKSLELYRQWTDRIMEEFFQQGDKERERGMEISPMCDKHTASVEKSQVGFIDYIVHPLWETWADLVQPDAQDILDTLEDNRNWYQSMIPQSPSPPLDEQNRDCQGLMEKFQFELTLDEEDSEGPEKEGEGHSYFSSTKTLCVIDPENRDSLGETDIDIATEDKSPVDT
# Summary of the method: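 The readout is membrane depolarisation from a cAMP-sensing CNG channel, detected with a potential dye at ex 535/em 590. Cells were HEK293-derived (endogenous PDE-IV) at 1000 cells/well, titrated up to 22.9 uM final.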
# [6] = target: Dual specificity protein kinase CLK4 (Homo sapiens) (UniProt Q9HAZ1); assay: qHTS Assay for Inhibitors of CDC-like Kinase 4 (ADP-Glo Assay) (AID 1771); note: potency is the fitted concentration of half-maximal effect; nearly all actives have a fitted effect of over 70% in size
# Sequence of UniProt Q9HAZ1 (Q9HAZ1 whole entry, looked up): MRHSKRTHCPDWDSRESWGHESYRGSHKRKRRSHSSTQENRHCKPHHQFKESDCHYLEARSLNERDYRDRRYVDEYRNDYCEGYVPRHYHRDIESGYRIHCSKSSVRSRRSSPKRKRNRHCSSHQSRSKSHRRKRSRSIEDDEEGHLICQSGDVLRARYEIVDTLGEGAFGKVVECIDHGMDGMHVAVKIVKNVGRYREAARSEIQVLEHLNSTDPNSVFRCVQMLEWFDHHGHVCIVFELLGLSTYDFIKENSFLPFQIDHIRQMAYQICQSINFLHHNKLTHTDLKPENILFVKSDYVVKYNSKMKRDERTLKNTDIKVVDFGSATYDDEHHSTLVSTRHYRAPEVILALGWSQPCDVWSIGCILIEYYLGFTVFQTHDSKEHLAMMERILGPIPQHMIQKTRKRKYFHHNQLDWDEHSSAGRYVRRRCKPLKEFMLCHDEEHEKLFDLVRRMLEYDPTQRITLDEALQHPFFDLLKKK
# Summary of the method: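 Kinase reaction: Clk4 at 25 nM, RS repeat peptide substrate at 100 uM, ATP at 1 uM, 1 hr, room temperature. Product ADP detected as luciferase signal via ADP-Glo.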
# [7] = target: Ubiquitin carboxyl-terminal hydrolase 1 (Homo sapiens) (UniProt O94782); assay: Inhibitors of USP1/UAF1: Pilot qHTS (AID 504865); note: potency is the fitted concentration of half-maximal effect;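 note: rhodamine fluorescence freed from ubiquitin-rhodamine substrate followed over time; nearly all actives have a fitted effect of over 35% in size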; for activity change, negative = inhibition: top concentration of the series differs between compounds; % is set by controls: 0 for no effect and ±100 for the full control effect
# Sequence of UniProt O94782 (O94782 whole entry, looked up): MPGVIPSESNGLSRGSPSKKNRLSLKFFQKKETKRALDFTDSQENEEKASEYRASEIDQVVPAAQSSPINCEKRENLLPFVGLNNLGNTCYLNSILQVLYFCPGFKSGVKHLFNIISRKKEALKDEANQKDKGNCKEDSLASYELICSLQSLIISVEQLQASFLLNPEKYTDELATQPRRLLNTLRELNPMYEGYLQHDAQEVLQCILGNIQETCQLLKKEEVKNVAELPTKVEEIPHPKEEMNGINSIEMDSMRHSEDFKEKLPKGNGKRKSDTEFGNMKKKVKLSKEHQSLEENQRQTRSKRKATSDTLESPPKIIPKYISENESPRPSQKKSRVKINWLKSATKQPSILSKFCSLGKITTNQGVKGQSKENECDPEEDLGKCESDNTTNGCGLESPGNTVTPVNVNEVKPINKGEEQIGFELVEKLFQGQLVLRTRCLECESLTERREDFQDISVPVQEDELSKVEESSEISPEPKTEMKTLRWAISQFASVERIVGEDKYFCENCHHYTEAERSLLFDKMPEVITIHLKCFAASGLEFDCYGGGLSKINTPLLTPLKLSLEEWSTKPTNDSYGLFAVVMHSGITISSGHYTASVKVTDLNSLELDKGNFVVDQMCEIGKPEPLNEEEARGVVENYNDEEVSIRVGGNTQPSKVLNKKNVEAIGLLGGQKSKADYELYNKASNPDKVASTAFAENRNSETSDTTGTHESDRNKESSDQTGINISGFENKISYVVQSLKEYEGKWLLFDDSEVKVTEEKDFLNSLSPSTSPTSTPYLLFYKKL
# Summary of the method: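 1nM USP1/UAF1 + cpd, 15 min RT; start w/ Ub-Rho 150nM final; kinetic FL 480/540 nm, 6 reads q60 s. Buffer 50mM HEPES pH 7.8, 0.5mM EDTA, 1mM TCEP, 0.01% Tween-20, 0.1 mg/ml BSA.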
# [8] = AP1 Signaling Pathway (AID 357; active = well fitted curve in either direction with a large enough effect, not every such curve was filed as active; inconclusive = small, poorly fitted or top-dose-only effect, or another doubt;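 note: ME-180 reporter cells stimulated with EGF at its EC50 level; top concentration of the series differs between compounds; % is set by controls: 0 for no effect and ±100 for the full control effect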); conditions: ME-180 AP-1-bla reporter, EGF-induced, beta-lactamase ratio, 5 h; at 7.69 µM (top of the series) unless noted
# Summary of the method: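 Modulation of EGF-driven AP-1 transcription was assessed with a beta-lactamase reporter in ME-180 cells. Compound and EC50 EGF were co-incubated 5 hours at 37 °C before 2.5-hour CCF4 loading at room temperature and dual-emission reading.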
# [9] = NFAT Signaling Pathway (AID 444; active = well fitted curve in either direction with a large enough effect, not every such curve was filed as active; inconclusive = small, poorly fitted or top-dose-only effect, or another doubt;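 note: carbachol stimulus at about its EC50 of 1 µM final; % is set by controls: 0 for no effect and ±100 for the full control effect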); conditions: Jurkat NFAT-bla M1, carbachol, beta-lactamase ratio, 5 h; at 7.69 µM (top of the series) unless noted
# Summary of the method: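 Jurkat cells with NFAT-driven β-lactamase reporter and co-expressed M1 receptor, stimulated with carbachol (final 1 uM, ~EC50), compound titration, 5 h at 37 °C. CCF4 loaded 1 h at RT; 460/530 nm ratio gave %activity and AC50.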
# [10] = target: Mitogen-activated protein kinase 10 (Mus musculus) (UniProt Q61831); assay: JNK3 AlphaScreen Assay (AID 530; active = well fitted curve in either direction with a large enough effect, not every such curve was filed as active; inconclusive = small, poorly fitted or top-dose-only effect, or another doubt;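 note: kinase came from lysate of stimulated human HepG2 cells; signal reports phosphorylation of biotinylated GST-cJun 1-79 at Ser73 with 10 µM ATP; % is set by controls: 0 for no effect and ±100 for the full control effect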); conditions: JNK3 lysate, c-Jun phosphorylation; activity change, negative = inhibition: at 57.1 µM (top of the series)
# Summary of the method: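 qHTS format: compounds tested as titrations against IL-1beta/TNF-alpha-activated HepG2 lysate JNK3 with biotin-GST-cJun substrate and 10 uM ATP at room temperature. Loss of anti-phospho-cJun AlphaScreen signal indicates inhibition.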
# [11] = target: Cytochrome P450 2C9 (Homo sapiens) (UniProt P11712); assay: qHTS Assay for Inhibitors and Substrates of Cytochrome P450 2C9 (AID 883); note: potency is the fitted concentration of half-maximal effect; nearly all actives have a fitted effect of over 60% in size
# Sequence of UniProt P11712 (P11712 whole entry, looked up): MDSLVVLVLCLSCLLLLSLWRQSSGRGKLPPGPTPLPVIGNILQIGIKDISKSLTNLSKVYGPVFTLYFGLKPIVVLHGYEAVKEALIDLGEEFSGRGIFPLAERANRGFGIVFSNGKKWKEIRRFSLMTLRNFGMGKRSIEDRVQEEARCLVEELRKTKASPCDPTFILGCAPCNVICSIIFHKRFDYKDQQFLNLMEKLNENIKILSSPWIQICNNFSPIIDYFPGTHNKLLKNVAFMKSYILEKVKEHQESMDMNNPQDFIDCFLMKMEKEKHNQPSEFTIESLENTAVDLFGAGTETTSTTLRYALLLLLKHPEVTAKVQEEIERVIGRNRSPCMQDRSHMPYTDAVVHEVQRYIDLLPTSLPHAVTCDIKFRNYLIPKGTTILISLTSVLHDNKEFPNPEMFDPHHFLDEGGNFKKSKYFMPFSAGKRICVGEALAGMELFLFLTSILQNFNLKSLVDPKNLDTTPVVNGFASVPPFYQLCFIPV
# Summary of the method: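 10nM CYP2C9 + 100uM Luciferin-H (=KM), 25mM KPO4; cpd 10 min 37C; NADPH regen, 60 min 37C; stop/detect with P450 Glo-Buffer 20 min; luminescence. Norm. to 57uM sulphaphenazole as full inhibition.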
# [12] = target: Rap guanine nucleotide exchange factor 3 (Homo sapiens) (UniProt O95398); assay: Counterscreen qHTS for agonist of cAMP-regulated guanine nucleotide exchange factor 3 (EPAC1) (AID 1645889); conditions: EPAC1 Rap1B-BODIPY-GDP exchange, fluorescence; activation: at 154 µM (top of the series) unless noted; note: potency is the fitted concentration of half-maximal effect; nearly all actives have a fitted effect of over 40% in size
# Summary of the method: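 Rap1B–BODIPY-GDP (250 nM) with 50 uM GDP; compounds pin-transferred to 9.74 nM–152 uM final (activator) or from 7.32 nM upwards (inhibitor). Fluorescence Ex/Em 480/540 nm read at 5 and 30 min, then after adding cAMP or buffer, at room temperature.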
# [13] = qHTS Assay for Identification of Small Molecule Agonists for Hypoxia Response Element Signaling Pathway (AID 914; active = well fitted activation curve with a large enough effect in the signal ratio, with a control signal flat, not every such curve was filed as active; inconclusive = small, poorly fitted or top-dose-only effect, or effect the other way, or a change in a side signal; the % refers to the signal ratio; note: potency is the fitted concentration of half-maximal effect); conditions: ME-180 (cervical carcinoma) HRE-bla reporter, beta-lactamase ratio, CoCl2, 17 h; activation: stronger effect = higher value
# Summary of the method: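 Cells were plated overnight, pin-dosed with compound in a titration series, co-stimulated with EC50 CoCl2 and incubated 17 hours at 37 degrees Celsius. CCF4 substrate was then loaded, and AC50 values came from the 460nm/530nm ratio.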
# Tags give direction and shape of the fitted curve or compound fluorescence and quenching.
compound,measurement,setting,value
CC(=O)C1CCC2C3CCC4=CC(=O)CCC4(C)C3CCC12C (configuration not stated),Potency,[1],"inconclusive: 28.2 µM [inhibitor, single point]"
same,Potency,[2],inactive
COc1ncc2nc(-c3ccccc3)c(=O)n(Cc3cccs3)c2n1,Potency,[1],"inconclusive: 31.6 µM [inhibitor, single point]"
same,Potency,[3],"inconclusive: 8.79 µM [inhibitor, full curve]"
COc1cccc(-c2coc3c(C)c4oc(=O)c(CCC(=O)O)c(C)c4cc23)c1,Potency,[1],"inconclusive: 2.24 µM [inhibitor, full curve, poor fit]"
same,Potency,[4],"inconclusive: 75.7 µM [inhibitor, partial curve, poor fit] and inconclusive: 55.9 µM [inhibitor, partial curve]"
C/C=C(\C)C(=O)OC1C(OC(=O)C2(C)OC2C)c2cc3ccc(=O)oc3cc2OC1(C)C (configuration not stated),Potency,[1],"inconclusive: 22.4 µM [inhibitor, single point]"
same,Potency,[3],"inconclusive: 31.2 µM [inhibitor, partial curve]"
Cc1ccccc1-c1ccc2ncnc(N(C)Cc3ccco3)c2c1,Potency,[5],"inconclusive: 10 µM [activator, single point]"
same,Potency,[6],active: 14.1 µM
same,Potency,[7],inactive
same,Potency,[1],"inconclusive: 28.2 µM [inhibitor, single point]"
same,Potency,[4],"inconclusive: 49.8 µM [inhibitor, partial curve, poor fit]"
COc1cc(CNC(=O)CCCC/C=C\C(C)C)ccc1O,Potency,[5],"inconclusive: 19 µM [activator, single point]"
same,Potency,[1],"inconclusive: 4.47 µM [inhibitor, full curve]"
same,Potency,[3],"inconclusive: 69.8 µM [inhibitor, partial curve, poor fit]"
same,"activity change, negative = inhibition",[3],inconclusive: -30.4% [inhibitor] [at 114 µM]
CN(Cc1ccco1)c1ncnc2ccc(-c3ccc4c(c3)OCO4)cc12,"activity change, negative = inhibition",[8],inconclusive: -67.7% [inhibitor]
same,"activity change, negative = inhibition",[9],inconclusive: -64.1% [inhibitor]
same,Potency,[10],inactive
same,Potency,[5],"inconclusive: 12.6 µM [rising, partial curve]"
same,Potency,[11],"inconclusive: 1.26 µM [inhibitor, single point]"
same,Potency,[7],"inconclusive: 56.2 µM [inhibitor, partial curve, poor fit]"
same,Potency,[1],"inconclusive: 28.2 µM [inhibitor, single point]"
same,Potency,[4],"inconclusive: 14 µM [inhibitor, partial curve, poor fit]"
same,Potency,[3],active: 13.9 µM
same,Potency,[12],"inconclusive: 22.4 µM [activator, partial curve, poor fit]"
COc1ccc(Oc2ncc3nc(CCc4ccccc4)c(=O)n(CCC#N)c3n2)cc1,"activity change, negative = inhibition",[8],inconclusive: -31.7% [inhibitor]
same,Potency,[5],inactive
same,Potency,[13],"inconclusive: 3.98 µM [inhibitor, single point]"
same,Potency,[1],"inconclusive: 28.2 µM [inhibitor, single point]"
same,Potency,[4],inactive
